The results in this text go back to PMC4336329 (PLoS ONE, 2015).

Among all 310,000 compounds or so, about 14,000 (4.5%) showed an effect of 50% or more. Effects have a minus sign here. The list shows a part of the results.
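Also: peak tail current of the secondary pulse compared with the same well before compound.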

The target in this assay is human ether-à-go-go-related gene (hERG) potassium channel (human, UniProt Q12809). Nature of the assay: primary screen, population patch clamp on CHO cells stably expressing hERG.
Sequence of human ether-à-go-go-related gene (hERG) potassium channel (Q12809 whole entry, looked up): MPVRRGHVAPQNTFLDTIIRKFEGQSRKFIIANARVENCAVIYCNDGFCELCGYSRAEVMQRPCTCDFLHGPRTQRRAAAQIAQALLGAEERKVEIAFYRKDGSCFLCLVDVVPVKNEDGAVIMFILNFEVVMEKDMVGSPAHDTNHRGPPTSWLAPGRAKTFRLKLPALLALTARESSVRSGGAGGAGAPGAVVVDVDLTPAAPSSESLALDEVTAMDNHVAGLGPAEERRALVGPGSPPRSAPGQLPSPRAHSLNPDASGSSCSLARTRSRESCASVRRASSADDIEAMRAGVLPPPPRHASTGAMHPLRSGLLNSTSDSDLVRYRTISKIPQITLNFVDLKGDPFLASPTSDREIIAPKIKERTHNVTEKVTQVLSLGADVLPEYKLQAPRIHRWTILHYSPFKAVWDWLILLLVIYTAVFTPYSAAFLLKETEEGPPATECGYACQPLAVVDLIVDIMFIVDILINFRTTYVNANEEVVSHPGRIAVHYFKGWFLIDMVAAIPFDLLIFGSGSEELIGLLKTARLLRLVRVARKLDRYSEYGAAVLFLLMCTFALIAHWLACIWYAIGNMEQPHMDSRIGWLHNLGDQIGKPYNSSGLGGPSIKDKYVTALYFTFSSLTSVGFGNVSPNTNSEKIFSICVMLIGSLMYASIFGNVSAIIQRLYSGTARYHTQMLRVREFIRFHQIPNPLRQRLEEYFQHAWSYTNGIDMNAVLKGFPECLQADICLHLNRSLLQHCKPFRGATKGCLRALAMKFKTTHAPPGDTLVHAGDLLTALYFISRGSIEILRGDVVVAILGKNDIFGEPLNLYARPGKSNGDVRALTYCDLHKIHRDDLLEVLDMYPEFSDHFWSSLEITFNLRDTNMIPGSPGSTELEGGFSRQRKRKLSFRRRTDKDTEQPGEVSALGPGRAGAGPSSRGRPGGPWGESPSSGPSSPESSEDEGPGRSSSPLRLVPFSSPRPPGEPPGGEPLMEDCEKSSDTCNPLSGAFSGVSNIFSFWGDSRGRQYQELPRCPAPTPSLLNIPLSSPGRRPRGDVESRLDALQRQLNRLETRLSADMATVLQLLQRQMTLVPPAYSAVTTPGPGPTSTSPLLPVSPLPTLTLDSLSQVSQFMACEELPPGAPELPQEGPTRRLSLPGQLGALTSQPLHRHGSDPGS
As to `N#Cc1c(N)oc(-c2cccs2)c1-c1cccs1`, the “hERG current change (%, negative = inhibition) at 10uM” value was 2.03%.
Then `CCOC(=O)C1C(c2ccccc2Cl)NC(=O)N(C)C1(O)C(F)(F)F` (stereo not drawn), with -2.6%; and `CN(Cc1cnn(C)c1)Cc1nc(COc2ccccc2)no1`, with 18.3%.
As for `O=C(Nc1cccc(S(=O)(=O)Nc2ccccc2Cl)c1)c1ccc(N2CCCC2)c([N+](=O)[O-])c1`, the “hERG current change (%, negative = inhibition) at 10uM” value was determined as 4.32%.
Then `O=C1CC(N2CCN(C3CC(=O)N(CCc4ccccc4)C3=O)CC2)C(=O)N1CCc1ccccc1` (stereo not drawn), with -6.78%.
Then `CCCCc1cc(=O)oc2cc(OCC(=O)N(CC)CC)ccc12`, with -41.2%; and `COc1cccc(/C=C/C(=O)OCC(=O)NC(=O)NC2CCCC2)c1`, with 1.72%; and `COc1ccc(NC(=O)CC2C(=O)N(C)C(=S)N2CCc2ccccc2)cc1` (stereo not drawn), with 7.83%.
Then `Cc1cccn2cc(CNC(=O)CC3CCCC3)nc12`, with -0.0505%; and `O=C(N/N=C/c1cc([N+](=O)[O-])ccc1O)C(O)(c1ccccc1)c1ccccc1`, with 4.13%.
On to `N#Cc1cc(C#N)c(SCC(=O)NCC2CCCO2)nc1N` (stereo not drawn), for which the “hERG current change (%, negative = inhibition) at 10uM” value came to 10.8%.
In the case of `COc1cccc(CN(C)C(=O)c2cccc(NC(=O)CC3SC(N4CCCCC4)=NC3=O)c2)c1OC` (stereo not drawn) it was -0.0991%.
As for `CCN(CC)CCNc1nc2c(c(=O)[nH]c(=O)n2C)n1CC(O)COc1ccc(Cl)cc1Cl` (stereo not drawn), the “hERG current change (%, negative = inhibition) at 10uM” value was -70.2%.
Regarding `O=C(NNC(=S)Nc1cccc(C(F)(F)F)c1)c1cccc(Cl)c1`, the “hERG current change (%, negative = inhibition) at 10uM” value was 21.6%.
In the case of `O=C(O)[C@@H]1CCCN1c1ncnc2sc3c(c12)CCC3` it was -1.12%; in that of `CCC1CCCCN1CCCNC(=O)c1cc2c(=O)[nH]c3ccccc3c2n1C` (stereo not drawn), -4.57%; in that of `COc1ccc(CC(=O)NN2C(=O)c3ccccc3C2=O)cc1`, -1.6%.
As for `COC(=O)COc1ccc(S(=O)(=O)N2CCCCCC2)cc1`, the “hERG current change (%, negative = inhibition) at 10uM” value was -5.57%.
Then `Cn1nccc1NC(=O)Nc1cccc(Br)c1`, with 2.93%; and `CC(C)/C(=N\NS(=O)(=O)c1ccc(Br)cc1)c1cccs1`, with 1.84%.
In the case of `CC1=C(C(=O)OCCNC(=O)c2cccnc2)C(c2cccc([N+](=O)[O-])c2)C(C(=O)OCCN(C)C)=C(C)N1.CCO` (stereo not drawn) it was -1.75%; in that of `O=C(Nc1ccccc1)C1CCOC1=O` (stereo not drawn), 16.1%.
In the case of `OCCCCNc1cccc2ccccc12` it was 7.65%; in that of `CC(C)(C)CC(C)(C)NC(=O)Nc1cccc([N+](=O)[O-])c1`, 11.8%.
